{"source": "PubChem BioAssay AID504832", "about": "(National Center for Advancing Translational Sciences (NCATS), 2011)", "note": "Out of some 310,000 compounds screened, about 18,000 (5.8%) were called active. The inconclusive results got no clear call from the source; some entries with a clear call stand among them for comparison. The call rests on the fitted dose curve; in most records, active means well fitted inhibition curve with a large enough effect; inconclusive means small, poorly fitted or top-dose-only effect, or another doubt; inactive means no such curve, though single readings can be large or run the other way. Potencies of inconclusive entries are left out as doubtful fits. Potency means the concentration at half of the fitted maximal effect; tags describe the fitted curve by direction and shape."}
{"experiment": "Primary qHTS for delayed death inhibitors of the malarial parasite plastid, 48 hour incubation", "conditions": "P. falciparum luciferase growth in erythrocytes; series mostly up to 28.7 µM", "in_short": "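Luciferase-expressing parasites in RBCs, 2% Hct / 0.1% parasitemia final; RPMI 1640 + 0.5% Albumax; 37 C, 5% CO2, one generation; luminescence read-out, lower signal = inhibition.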"}
{"smiles": "CCN(CC)S(=O)(=O)c1ccc(C(=O)NC2=NCCS2)cc1", "Potency": "inactive"}
{"smiles": "Cc1ccc2[nH]c(=O)c(CN(CCCO)C(C)c3nnnn3Cc3ccco3)cc2c1", "note": "(stereo not given)", "Potency": "active: 2.33 µM"}
{"smiles": "COc1ccc(C(CNC(=O)c2oc3cc(Br)ccc3c2C)N2CCCCC2)cc1", "note": "(stereo not given)", "Potency": "inconclusive [inhibitor, single point]"}
{"smiles": "Cc1cc(C)nc(SCC(=O)c2ccc(O)c(O)c2)n1", "Potency": "inconclusive [inhibitor, single point]"}
{"smiles": "O=C(Cc1n[nH]c(=O)c2ccccc12)Nc1cccc(S(=O)(=O)N2CCCCCC2)c1", "Potency": "active: 9.28 µM"}
{"smiles": "COc1cc2cc(C(c3nnnn3C(C)(C)C)N3CCC(C)CC3)c(=O)[nH]c2cc1OC", "note": "(stereo not given)", "Potency": "inconclusive [inhibitor, single point]"}
{"smiles": "COC(=O)c1ccc(Oc2nc(Nc3ccccc3)nc(N(C)C)n2)cc1", "Potency": "inconclusive [inhibitor, single point]"}
{"smiles": "COC(=O)N/N=C\\c1ccc(OC/C=C/c2ccccc2)cc1", "Potency": "inconclusive [inhibitor, partial curve, poor fit]"}
{"smiles": "COc1ccc(CC(=O)OCC(=O)Nc2ncc(Cl)c(C)c2Cl)cc1", "Potency": "inactive"}
{"smiles": "COc1ccc(Cl)cc1NC(=O)COC(=O)/C=C/c1c(C)nn(C2CCS(=O)(=O)C2)c1Cl", "note": "(stereo not given)", "Potency": "inconclusive [inhibitor, partial curve, poor fit]"}
{"smiles": "Cc1ccc(NS(=O)(=O)c2ccc3c(c2)NC(=O)CCS3)c(Cl)c1", "Potency": "active: 4.65 µM"}
{"smiles": "C=CCNC(=S)N1CCC(C(=O)c2ccc(Cl)cc2)CC1", "Potency": "inactive"}
{"smiles": "C=C1[C@@H](OC(C)=O)CC[C@]2(C)[C@@H]1C[C@@H]1C[C@H](OC(C)=O)C(C)=C([C@@H](OC(C)=O)[C@@H]2OC(C)=O)C1(C)C", "Potency": "active: 6.57 µM"}
{"smiles": "COc1ccc(CSc2ncnc3sccc23)cc1F", "Potency": "inactive"}
{"smiles": "ClCc1nc2ccccc2c2ccccc12", "Potency": "inconclusive [inhibitor, partial curve, poor fit]"}
{"smiles": "COc1cccc(-c2cc(C(=O)N3CCN(S(=O)(=O)c4ccccc4)CC3)[nH]n2)c1", "Potency": "inconclusive [inhibitor, partial curve, poor fit]"}
{"smiles": "O=C(N/N=C/c1cc(Cl)c(O)c(Cl)c1)c1cc2c(ccc3ccccc32)o1", "Potency": "active: 11.7 µM"}
{"smiles": "O=C(c1cc(Br)c(Br)s1)N1CCOCC1", "Potency": "inactive"}
{"smiles": "COc1ccc(NC(=O)c2oc3ccccc3c2NC(=O)C2CC2)cc1", "Potency": "inconclusive [inhibitor, full curve]"}
{"smiles": "CSc1ncccc1C(=O)N1CCN(S(=O)(=O)c2ccc3ccccc3c2)CC1", "Potency": "inconclusive [inhibitor, single point]"}
